Reference: PubChem BioAssay AID624417 (National Center for Advancing Translational Sciences (NCATS), 2012)
Values joined by “and” are separate entries in the source; they are usually repeats but may differ in a detail not shown here. Identical values can stand only once. About 6,400 (1.6%) of roughly 410,000 compounds were called active. Inconclusive means that the source gave no clear call. Such entries were picked first, then a sample of the others. The call rests on the fitted dose curve; in most records, active means well fitted inhibition curve with a large enough effect; inconclusive means small, poorly fitted or top-dose-only effect; inactive means no such curve, though single readings can be large or run the other way. A potency beside an inconclusive call is a rough fit, not a confirmed value.

Target: Glucagon-like peptide 1 receptor (Homo sapiens) (UniProt P43220)
Sequence of UniProt P43220 (P43220 whole entry, looked up): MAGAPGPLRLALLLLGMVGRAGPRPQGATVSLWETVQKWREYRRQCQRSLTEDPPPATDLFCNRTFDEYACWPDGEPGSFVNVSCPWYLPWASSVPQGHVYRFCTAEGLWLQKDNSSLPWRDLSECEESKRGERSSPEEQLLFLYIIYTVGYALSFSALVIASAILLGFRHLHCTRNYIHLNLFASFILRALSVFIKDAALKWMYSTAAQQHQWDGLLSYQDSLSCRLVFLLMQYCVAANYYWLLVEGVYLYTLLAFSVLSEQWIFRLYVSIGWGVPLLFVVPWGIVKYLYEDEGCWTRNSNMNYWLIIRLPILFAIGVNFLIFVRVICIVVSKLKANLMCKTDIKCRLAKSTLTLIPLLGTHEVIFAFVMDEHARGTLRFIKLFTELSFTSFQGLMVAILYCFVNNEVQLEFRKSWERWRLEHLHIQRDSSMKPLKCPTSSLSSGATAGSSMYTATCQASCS
Assay: qHTS of GLP-1 Receptor Inverse Agonists (Inhibition Mode); further: nearly all actives have a fitted effect of over 55% in size
Conditions: HEK293 GLP-1R CRE-luciferase, luminescence, 24 h, GLP-1R form is constitutively active; activity change, negative = inhibition: at 38.3 µM (top of the series) unless noted
In short: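 GLP-1R inverse agonism mode: basal reporter luminescence in engineered HEK293 cells measured after one day of compound exposure at 37 deg C, with a 12 min room-temperature detection step.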
On the % scale 0 is the no-effect control and ±100 the full control effect; potency means the concentration at half of the fitted maximal effect; tags describe the fitted curve by direction and shape.

SMILES | Potency | activity change, negative = inhibition
Cc1ccc([C@H]2C[C@H](O)[C@@H](n3cc(-c4ccc(F)cc4)nn3)CN2C(=O)c2cccs2)cc1 | inconclusive: 14.1 µM [inhibitor, single point] | –
COc1ccc(OCCn2cnc3ccccc32)cc1 | inconclusive: 28.2 µM [inhibitor, single point] | –
CC1CCC(C(C)C)C(OC(=O)Cn2c(-c3ccccc3)[n+](C)c3ccccc32)C1 (centres undefined) | inconclusive: 3.98 µM [inhibitor, partial curve, poor fit] and inconclusive: 10 µM [inhibitor, single point] | –
CC(C)N1CCC(N2CCN(Cc3cc4c(cc3Cl)OCO4)CC2CCO)CC1 (centres undefined) | inconclusive: 10 µM [inhibitor, partial curve, poor fit] | –
O=C1/C(=C/c2ccc(S(=O)(=O)O)cc2S(=O)(=O)O)CCc2ccccc21 | – | inactive: 19.8%
Clc1cccc(-n2ncc3c(NCCc4ccccc4)ncnc32)c1 | inconclusive: 20 µM [inhibitor, single point] | –
Cn1cnnc1SCC(=O)Nc1ccc(Br)cc1F | – | inactive: 2.13%
COc1cc(OC)cc(C(=O)N[C@H](C(=O)Nc2ccc3c(c2)OCO3)C(C)C)c1 | inconclusive: 7.94 µM [inhibitor, partial curve, poor fit] | –
COc1ccc(-c2cc(C(=O)OCC(=O)NC3CC3)c3ccccc3n2)cc1 | – | inactive: -19.6%
CC1CCCC(NC(=O)c2cccc(S(=O)(=O)N3CCCCC3)c2)C1C (centres undefined) | inconclusive: 3.55 µM [inhibitor, full curve, poor fit] | –
Cc1ccc(C(NC(=O)C2CCN(CCCOc3ccccc3)CC2)c2ccccn2)cc1 (centres undefined) | inconclusive: 28.2 µM [inhibitor, single point] | –
CCCCC(=O)N(CCOC)c1nnc(-c2ccc(OC)cc2)s1 | inconclusive: 14.1 µM [inhibitor, partial curve, poor fit] | –
c1ccc(Cc2nnc(Sc3ccccc3)c3ccccc23)cc1 | inconclusive: 11.2 µM [inhibitor, single point] | –
O=C(NCC1CCN(Cc2ccc(F)cc2)CC1)C1CCCN(c2ncnc3c2nc2n3CCCCC2)C1 (centres undefined) | inconclusive: 10 µM [inhibitor, partial curve, poor fit] | –
Cc1ccc(C23CC4CC(CC(C(=O)NC(C)C)(C4)C2)C3)cc1 | inconclusive: 2.82 µM [inhibitor, single point] | –
Cc1ccc(NC(=S)Nc2cccnc2)c(S(=O)(=O)N2CCCCC2)c1 | inconclusive: 28.2 µM [inhibitor, single point] | –
CC[C@H](C)[C@H]1CNC(=S)N1CC1CCN(CCC23CC4CC(CC(C4)C2)C3)CC1 | – | inactive: -35.3%
Cc1cnc(NC2=NCCC2)s1 | inconclusive: 28.2 µM [inhibitor, single point] | –
O=C(CN1C(=O)/C(=C\c2cccc(Cl)c2)Sc2ccccc21)NCCCN1CCOCC1 | inconclusive: 10 µM [inhibitor, single point] | –
Cc1ccc(NC(=O)N2CCC(N3CCN(Cc4ccccc4)C(=O)C3=O)CC2)cc1Cl | – | inactive: -0.603%

SMILES | Potency | activity change, negative = inhibition
CN(CCO)c1cc(Sc2nc3ccccc3s2)c2nonc2c1[N+](=O)[O-] | inconclusive: 28.2 µM [inhibitor, single point] | –
COc1ccc(N2CCN(c3ccc(-c4nc(-c5ccccc5C)no4)cc3[N+](=O)[O-])CC2)cc1 | – | inactive: 17.2%
CN(C(=O)COC(=O)C1CCN(S(=O)(=O)c2c(Cl)cccc2Cl)CC1)c1ccccc1 | inconclusive: 11.2 µM [inhibitor, partial curve, poor fit] | –
CC1CC(NC(=O)Cc2ccc(Br)cc2)CC(C)(C)C1 (centres undefined) | inconclusive: 10 µM [inhibitor, partial curve, poor fit] | –
CN(CC(=O)Nc1ccc(Cl)c(C(F)(F)F)c1)C(=O)COC(=O)C1CC2CCCC(C1)C2=O (centres undefined) | inconclusive: 28.2 µM [inhibitor, single point] | –
Cc1ccc(C)c(S(=O)(=O)N2CCN(c3ncnc4sccc34)CC2)c1 | inconclusive: 11.2 µM [inhibitor, partial curve, poor fit] | –
Cc1cccc(N2CCN(C(=O)c3cccc(N4CCCC4=O)c3)CC2)c1C | inconclusive: 28.2 µM [inhibitor, single point] | –
O=C(CN1C(=O)C(c2ccccc2)Oc2cccnc21)NCc1ccccc1F (centres undefined) | inconclusive: 12.6 µM [inhibitor, partial curve] | –
CCOC(=O)C1(CC2CCCCO2)CCN(Cc2ccccc2-c2ccco2)CC1 (centres undefined) | inconclusive: 28.2 µM [inhibitor, single point] | –
O=C(NNc1nc2ccccc2o1)c1ccccc1 | inconclusive: 5.62 µM [inhibitor, partial curve] | –
CCCCN(C)C(=O)C1CCN(Cc2cccc(OCc3ccccc3)c2)CC1 | inconclusive: 7.94 µM [inhibitor, partial curve, poor fit] | –
CC(C)C1C(=O)N(Cc2cn(Cc3ccco3)nn2)CCS(=O)(=O)N1Cc1ccc(-c2ccc(Cl)c(Cl)c2)cc1 (centres undefined) | inconclusive: 12.6 µM [inhibitor, partial curve, poor fit] | –
C=CCN1CN(S(=O)(=O)c2cccc(Cl)c2)c2nc3ccccc3nc21 | inconclusive: 12.6 µM [inhibitor, partial curve, poor fit] | –
Nc1ccc(C(=O)OCC(=O)NC(=O)c2ccccc2)cc1[N+](=O)[O-] | – | inactive: 10.7%
FC(F)(F)c1ccc2nnc(-c3c(Cl)cccc3Cl)n2c1 | inconclusive: 12.6 µM [inhibitor, single point] | –
COc1ccc(C(=O)Nc2ccccc2C(=O)OCc2cc(=O)n3c4c(sc3n2)CCCC4)cc1 | – | inactive: -3.19%
CCN(CC)S(=O)(=O)c1ccc2c(c1)N(CC(=O)NCCc1ccc(OC)c(OC)c1)C(=O)CO2 | – | inactive: 13.9%
Cc1ccc(NC(=O)NC2CC(=O)N(c3ccc4c(c3)OCCO4)C2)cc1C (centres undefined) | inconclusive: 7.08 µM [inhibitor, partial curve, poor fit] | –
COc1cc2[nH]c(C(=O)NCCc3ccccc3)cc2c(OC)c1OC | – | inactive: -20.7%
